Values joined by “and” are separate entries in the source; they are usually repeats but may differ in a detail not shown here. Identical values can stand only once. The whole screen tested about 48,000 compounds, of which about 1,200 (2.5%) were called active. About 2% were inconclusive and are not listed.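 How the source made its calls: active means activation of at least 60% and not above a set upper limit (about 1 call in 100 departs from these limits); inconclusive means activation of 40% to 60%, or above that upper limit; inactive means activation under 40%.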 Some of the results follow.

This assay has as its target Probable G-protein coupled receptor 32 (Homo sapiens) (UniProt O75388). Briefly: qHTS for Agonists of Human Resolvin D1 Receptor DRV1. Further: 0% is about no effect. The settings on record: CHO-K1 GPR32 beta-arrestin PathHunter luminescence, 90 min; at 76.9 µM; active compounds read high; zero percent set by DMSO-only wells. Put shortly: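 Step 1: seed CHO-K1 GPR32 beta-arrestin cells, 2,500/well, overnight at 37 °C. Step 2: add compounds, 90 min at 37 °C. Step 3: detection reagent, 1 h ambient, then luminescence.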
Chain of UniProt O75388 (O75388 whole entry, looked up): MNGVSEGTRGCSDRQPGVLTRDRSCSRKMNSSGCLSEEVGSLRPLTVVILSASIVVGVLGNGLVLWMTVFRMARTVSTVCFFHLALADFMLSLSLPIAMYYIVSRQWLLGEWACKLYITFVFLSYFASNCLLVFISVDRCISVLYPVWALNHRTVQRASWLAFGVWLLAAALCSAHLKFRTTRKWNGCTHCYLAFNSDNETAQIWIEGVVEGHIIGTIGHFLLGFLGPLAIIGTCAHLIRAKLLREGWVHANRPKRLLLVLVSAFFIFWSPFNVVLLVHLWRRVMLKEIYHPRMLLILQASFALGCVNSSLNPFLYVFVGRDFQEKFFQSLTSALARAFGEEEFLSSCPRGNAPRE
For orientation: qHTS replaces the single test concentration by a dilution series.
On to `COCc1nnc(NC(=O)c2cc(OC)c(OC)c(OC)c2)s1`, for which the activation is inactive: 5.35%.

With `CCC(C(=O)Nc1cc(C)ccc1C)n1c(=O)c(C(F)(F)F)nc2ccccc21` (stereo not given), the activation was inactive: 5.98%. Consider `COc1ccc(C(=O)/C=C/c2cn(CC(O)CN3CCc4ccccc43)c3ccccc23)cc1OC` (stereo not given), for which the activation is inactive: 16.6%. `COc1cccc(CNS(=O)(=O)c2cnc(N)nc2)c1`: the activation was inactive: -9.89%.

As for `COCC(=O)n1nc(-c2ccco2)nc1NCc1ccccc1Cl`, the activation was inactive: -11.2%. For the compound `Nc1nc2c(ncn2COC(CO)CO)c(=O)[nH]1`, the activation is inactive: -5.3% and inactive: -1.37%. `Cc1cc(C)n(-c2nc(C)c(C)c(=O)n2CC(=O)Nc2ccc([N+](=O)[O-])cc2)n1`: the activation was inactive: -13.4%.

`COc1cc(OC)cc(C(=O)Nc2ccc(-c3nc4ccccc4s3)cc2C)c1`: the activation is inactive: 3.33%. For the compound `CC12C(=O)OC(=O)C1(C)C1CCC2O1` (stereo not given), the activation was inactive: -34.4%. Take `COc1ccc(CCNC(=O)c2ccc3c(c2)N(Cc2ccc(F)cc2)C(=O)c2ccccc2S3(=O)=O)cc1OC`: the activation is inactive: -36%. For `C[n+]1c2cc(N)ccc2cc2ccc(N)cc21` (tested in a mixture with another compound), the activation was inactive: 14.7%. For the compound `COc1ccccc1CNC(=O)CCc1c(C)c2cc3c(C)c(C)oc3cc2oc1=O`, the activation was inactive: -21.1%. For the compound `CCc1nn(CC(=O)NCc2ccco2)c(=O)c2cc3c(OC)cccc3n12`, the activation is inactive: -5.63%. Consider `C=CCc1cccc2cc(-c3nc4ccc(C)cc4[nH]3)c(=O)oc12`, for which the activation is inactive: -14.7%.

Turning to `CCOC(=O)c1ccc(NC(=O)Cn2cc(C(=O)C3CC3)c3ccccc32)cc1`, the activation was inactive: -9.23%. The figure for `Cc1c(C(=O)Nc2cccc(C(F)(F)F)c2)sc2nc[nH]c(=O)c12` is inactive: 20%. Turning to `Cc1ccccc1Nc1c(-c2c(F)cccc2Cl)nc2ccc(Br)cn12`, the activation is inactive: -16.3%. Turning to `CCOC(=O)c1ccc(NC(=O)CCCn2c(=O)c3cccn3c3ccccc32)cc1`, the activation is inactive: -20.8%. As for `Cc1ccc(-n2ncc3c(NCCCN4CCOCC4)ncnc32)cc1C`, the activation was inactive: 34.9%. Consider `COC(=O)c1ccc(C2Nc3c(C)cccc3-c3cc(C)nn32)cc1` (stereo not given), for which the activation was inactive: -11.5%. Regarding `O=C(Cn1c(=O)oc2cc(S(=O)(=O)NCc3ccccc3)ccc21)Nc1cccc(F)c1`, the activation is active: 67.3%.

Turning to `COc1ccccc1CNc1nc2c(S(=O)(=O)c3ccc(C)c(C)c3)nnn2c2ccc(Cl)cc12`, the activation is inactive: -3.99%.

`COc1ccc(NC(=O)C(NS(=O)(=O)c2cccc3nsnc23)C(C)C)cc1` (stereo not given): the activation was inactive: -47.6%. For the compound `COc1ccc(NC(=O)c2cc3ccccc3o2)c(OC)c1`, the activation is inactive: -9.37%. In the case of `CCOC(=O)c1c(NC(=O)c2cc(-c3ccc(Br)cc3)on2)sc(C(C)=O)c1C`, the activation was inactive: -9.84%.

Regarding `O=C(c1ccc(F)cc1)c1cn(Cc2ccccc2)c2cc3c(cc2c1=O)OCO3`, the activation is inactive: -8.57%.

Regarding `Cc1oc(-c2ccc(C(=O)Nc3ccc(F)cc3)cc2)nc1COc1ccccc1`, the activation is inactive: 28.7%. As for `COc1ccc(C2=CC(c3cc(Br)ccc3F)n3c(nc4ccccc43)N2)cc1` (stereo not given), the activation is inactive: -41%. In the case of `O=C(Nc1c(C(=O)N2CCN(c3ccccc3F)CC2)oc2ccccc12)c1cccc(F)c1`, the activation was inactive: -8.39%. For `CC1CCCN(c2cc3c(cc2F)c(=O)c(S(=O)(=O)c2cccc(Cl)c2)cn3Cc2ccccc2)C1` (stereo not given), the activation is inactive: -7.51%. Regarding `O=C(COc1ccccc1Cl)Nc1ccc(-c2nc3ccccc3s2)cc1`, the activation was inactive: 5.36%. For `COc1ccc(CCNC(=O)C(=O)NCC(c2ccco2)S(=O)(=O)c2ccc(C)cc2)cc1` (stereo not given), the activation was inactive: 18.1%. `CC(C)NC(=O)c1ccc(Cn2c(SCc3ccc(F)cc3)nc3cccnc32)cc1`: the activation is inactive: 15%.

With `O=C(CCn1c(=O)c2cccn2c2cccnc21)N1CCN(c2cccc(C(F)(F)F)c2)CC1`, the activation is inactive: -9.04%. Take `Cc1cccc(CS(=O)(=O)c2ncc(Cl)c(C(=O)Nc3nnc(C(C)C)s3)n2)c1`: the activation was inactive: -9.43%. The figure for `COc1ccc2c(c1)c(=O)c(S(=O)(=O)c1ccc(F)cc1)cn2Cc1ccccc1Cl` is inactive: -5.09%; for `CC(C)(C)OC(=O)N1CCC(c2c(C(=O)N3CCN(c4ccccn4)CC3)cnn2-c2ccc(F)cc2)CC1` it is inactive: -13.9%; for `Cc1ccc(-c2cn3cccnc3n2)cc1NC(=O)Nc1ccc(F)cc1` it is inactive: -7.87%. Consider `O=C(c1ccc2c(c1)OCO2)c1cn(Cc2ccc(Cl)cc2)c2ccc(F)cc2c1=O`, for which the activation was inactive: -18.7%. The same measure for `O=C(Cn1ncc2c1-c1ccccc1OC2)N1CCN(c2ccccc2)CC1`: inactive: 15.4%.

In the case of `COCCNC(=O)CN1C(=O)c2cccnc2Sc2ccccc21`, the activation was inactive: -7.68%. The same measure for `COc1cccc2c(C)cc3nnc(SCC(=O)Nc4ccc(C)cc4)n3c12`: inactive: -34.3%. `CC1CCC(NC(=O)c2ccc(CS(=O)(=O)c3ccc(Cl)cc3)o2)CC1` (stereo not given): the activation is inactive: -18.7%. Turning to `CCCCOc1ccc(C(=O)N2CCCCC2CCN2CCOCC2)cc1` (stereo not given), the activation is inactive: 6.46%. `CCN(CC)S(=O)(=O)c1ccc(C(=O)NCCSc2c(-c3ccc(F)cc3)[nH]c3ccccc23)cc1`: the activation is inactive: -14.4%. As for `CC(=O)c1ccc(NC(=O)CSc2nc(-c3ccc(C)cc3)nc3c2c(=O)n(C)c(=O)n3C)cc1`, the activation is inactive: 0.398%.

As to `CCn1c(=O)cc(OCC(=O)N2CCN(c3ccc(C)cc3)C(C)C2)c2ccccc21` (stereo not given), the activation was active: 74.2%. Consider `Cc1cc(Cl)ccc1OCC(=O)N(Cc1sccc1C)C1CCS(=O)(=O)C1` (stereo not given), for which the activation is inactive: -16.9%. The same measure for `CC(C)OCCCNC(=O)CN1C(=O)c2cccnc2Sc2ccccc21`: inactive: -11%. With `COc1ccc(CNC(=O)c2cnc(N(C)C)nc2)cc1`, the activation was inactive: -9.76%. For `CCCOc1cccc(C(=O)N(Cc2sccc2C)C2CCS(=O)(=O)C2)c1` (stereo not given), the activation is inactive: -32.2%. In the case of `Cn1c(=O)n(Cc2ccccc2)c(=O)c2c1nc1n2CCN1c1ccccc1`, the activation was inactive: 4.56%. With `O=C(Cn1cc(SCc2c(F)cccc2Cl)c2ccccc21)N1CCCCC1`, the activation was inactive: -18.2%. As to `Cc1cccn2cc(-c3cccc(NC(=O)C(C)C)c3)nc12`, the activation is inactive: 24.7%. The figure for `CCN(CC)CCNC(=O)CN1N=C(c2ccc(OC)cc2)CCC1=O` is inactive: 1.3%; for `COc1ccc(NC(=O)c2ccc(NC(=O)N3CCSc4ncccc43)cc2)cc1` it is inactive: 29.3%; for `COCCn1c(CNC(=O)c2cccc(C)c2)nc2cccnc21` it is inactive: -5.77%. Take `COCCNC(=O)C1CCN(Cc2cc3ccccc3n2Cc2ccc(C)cc2)CC1`: the activation is inactive: 24.6%. For `COc1ccccc1NC(=O)C1=C(C)Nc2nc(SCc3ccccc3)nn2C1c1cccc(O)c1` (stereo not given), the activation is inactive: 39.2%. On to `COc1ccc(OC)c(NS(=O)(=O)c2ccc(-n3cccn3)cc2)c1`, for which the activation is inactive: -3.74%.

As to `COc1ccc(NC(=O)c2nnn(Cc3nc(-c4cc(OC)c(OC)c(OC)c4)oc3C)c2C)cc1Cl`, the activation is inactive: 8.89%. The same measure for `COc1ccccc1CNC(=O)c1ccc2[nH]c(C)c(C)c2c1`: inactive: -1.46%; for `O=C(COc1ccc(F)cc1)Nc1nnc(S(=O)(=O)N2CCCC2)s1`: inactive: 9.07%; for `COCCCNC(=O)Cn1c(=O)n(-c2ccc(C)c(C)c2)c(=O)c2c3c(sc21)CCCCC3`: inactive: 26.4%.

For the compound `CCCCNC(=O)C(CC)Sc1nc2ccccc2c(=O)n1Cc1ccco1` (stereo not given), the activation was inactive: 3.46%. As to `CCC(C)n1c(=O)c2sccc2n2c(CCCC(=O)NCc3ccccc3Cl)nnc12` (stereo not given), the activation is inactive: -6.08%. The same measure for `COc1cc(NC(=O)C2CCN(S(=O)(=O)Cc3ccccc3)CC2)c(OC)cc1Cl`: inactive: 4.71%. Turning to `COCCNC(=O)c1sc2ncccc2c1-n1c(C)ccc1C`, the activation is inactive: -16.5%. The same measure for `NCCCCCC(=O)O`: inactive: 0.744% and inactive: 0.13%; for `Cc1cc(C)n2nc(CNC(=O)c3c(F)cccc3F)nc2n1`: inactive: -3.93%; for `Cc1ccc(C(=O)c2sc(Nc3ccccc3)c(S(=O)(=O)c3ccccc3)c2N)c(C)c1`: inactive: -0.169%. Consider `CCOC(=O)c1cccc(NC(=O)Cn2c(=O)c3cccn3c3ccccc32)c1`, for which the activation was inactive: -19.8%. As to `Cc1cccc(N(C)S(=O)(=O)c2nnc(NC(=O)c3cccs3)s2)c1`, the activation was active: 73.2%. As for `Cc1c2cnn(CC(=O)N3CCN(c4ccccc4)CC3)c(=O)c2c(C)n1Cc1ccccc1Cl`, the activation is inactive: -11.9%. As to `CC1=C(C)C(=O)C(C(CCCCCC(=O)O)c2ccccc2)=C(C)C1=O` (stereo not given), the activation is inactive: -3.01%. Turning to `CC(=O)c1ccc(NC(=O)CCc2c(C)nc3c(c2C)c(=O)n(C)c(=O)n3C)cc1`, the activation was inactive: -0.851%.

In the case of `CC(=O)C1=C(c2ccccc2)N(C(C)=O)n2c(nnc2C2CCCCC2)S1`, the activation was inactive: -47.4%.

With `CCCCN(C)CCCNC(=O)CN1N=C(c2ccc(OC)cc2)CCC1=O`, the activation is inactive: 11.3%. Consider `CSc1ncc(Cl)c(C(=O)Nc2ccc(S(=O)(=O)Nc3nccc(C)n3)cc2)n1`, for which the activation is inactive: -38.9%.

For `Cc1cc(C)cc(-n2cnc3cc(C(=O)NC4CCCCCC4)ccc32)c1`, the activation is inactive: -25%.

On to `Cc1ccc(CCNC(=O)c2ccc3[nH]c(C)c(C)c3c2)cc1`, for which the activation was inactive: 2.33%. Regarding `CCn1cc2nc(SCC(=O)Nc3ccc(C)cc3)n(Cc3ccc(C)cc3)c(=O)c2n1`, the activation is inactive: -29.4%. As for `O=C(NCc1ccccc1F)c1sc2ncccc2c1-n1cccc1`, the activation was inactive: -17.4%. Consider `CCOc1ccc(C2=NC(c3cccs3)=Nc3ccc(CC)cc3N2)cc1OCC`, for which the activation is inactive: -33.4%. For `O=S(=O)(NCCS(=O)(=O)N1CCN(c2cccc(Cl)c2)CC1)c1ccc(F)cc1`, the activation is inactive: -15.5%.

The values above are taken from PubChem BioAssay AID1346428 (National Center for Advancing Translational Sciences (NCATS), 2018).
